According to PubChem BioAssay AID662 (National Center for Advancing Translational Sciences (NCATS), 2007):
Screen size: about 71,000 compounds; about 1,800 (2.5%) were called active. Inconclusive means that the source gave no clear call. Such entries were picked first, then a sample of the others. Calls follow the shape of the dose curve; as a rule, active = well fitted activation curve with a large enough effect in the signal ratio, with a control signal flat (not every such curve was filed as active); inconclusive = small, poorly fitted or top-dose-only effect, or effect the other way, or a change in a side signal; inactive = flat fitted curve, though single readings scatter; the % refers to the signal ratio. Potencies of inconclusive entries are doubtful fits and often do not repeat.

test: Cell signaling CRE-BLA (Fsk stim); details: CHO CRE-bla reporter (cAMP response element driving beta-lactamase), forskolin EC10, beta-lactamase ratio; activity change, negative = inhibition: at 38.2 µM (top of the series) unless noted; as to activity change, negative = inhibition: % of control where 0% means no effect
In short: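 Forskolin analogue NKH 477 at EC10 stimulated CRE-driven beta-lactamase in CHO cells alongside compound dilution series. Beta-lactamase was measured with CCF4, excitation 405 nm, emission ratio 460/530 nm.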
Potency is read from the fitted curve at half-maximal effect; tags tell the direction and shape of the fitted curve.

Structure (SMILES)	Potency	activity change, negative = inhibition
O=C(C1COc2ccccc2O1)N1CCc2ccccc21 (stereo not given)	inconclusive: 2.51 µM [falling, single point]	
COc1ccc(C2C=C(c3ccc(Br)cc3)Nc3nc(N4C(=O)CCC4=O)nn32)cc1 (stereo not given)	inconclusive: 12.6 µM [falling, partial curve]	
Cc1ccc(C2CC(=O)Nc3cc4c(cc32)OCCO4)s1 (stereo not given)	inconclusive: 15.8 µM [rising, partial curve]	
O=C(O)CCCc1ccc2ccc3ccccc3c2c1		inactive: -9.8% [at 7.6 µM]
CN(c1ccccc1)C(c1ccc(F)cc1)c1nnnn1CC1CCCO1 (stereo not given)		inactive
COc1cccc2cc(C(=O)N3CCc4ccccc43)c(=O)oc12		inactive
COc1cc([C@@H]2c3cc4c(cc3[C@@H](O[C@@H]3O[C@H]5CO[C@@H](C)O[C@@H]5[C@@H](O)[C@H]3O)[C@@H]3COC(=O)[C@@H]23)OCO4)cc(OC)c1O		inactive
CN(C)c1ccc(-c2nccc(NCc3cccs3)n2)cc1		inconclusive: 11%
Cc1ccc(Cn2nnc3c(=O)[nH]c(C(=O)NCc4ccco4)nc32)cc1		inconclusive: 26.3%
Cc1cc(C)nc(-n2nc(C)cc2NC(=O)c2ccc(Br)o2)n1	active: 1.26 µM	
COc1cc(OC)c2c(C)cc(=O)oc2c1	inconclusive: 10 µM [rising, partial curve]	
O=C(NCc1ccccc1)N(Cc1nc2ccccc2c(=O)[nH]1)C1CCCC1		inactive
CC1CC(C)CN(c2oc(-c3ccco3)nc2C#N)C1 (stereo not given)		inconclusive: 18.8%
COc1ccc(CNc2ncncc2-c2ccccc2CN(C)C)c(OC)c1		inactive
COC(=O)c1ccc(Cn2cnc3c(cnn3-c3ccc(F)cc3)c2=O)o1	inconclusive: 10 µM [rising, partial curve]	
CC(C)N(Cc1nc(-c2ccc(Cl)cc2)no1)C(=O)CCCN1C(=O)c2ccccc2C1=O		inconclusive: 9.94% [cytotoxic]
COC(=O)c1ccccc1NC(=O)C1CCN(S(=O)(=O)c2cc(C)ccc2OC)CC1		inconclusive: 23.1%
CCn1c(CSc2nc(C)cc(C)n2)nnc1SCC(=O)Nc1ccccc1		inactive
Cn1c(=O)c2c(-c3ccccc3)n(N3CCOCC3)cc2n(C)c1=O	inconclusive: 3.16 µM [rising, single point]	
CCn1c2ccccc2c2nnc(NCCCO)nc21	inconclusive: 3.98 µM [rising, single point]	
COC(=O)c1ccc(Nc2nc(C)cc(=O)[nH]2)cc1	inconclusive: 2.51 µM [rising, partial curve]	
CCC12CN3CC(CC)(CN(C1)C3c1ccc(OC(C)C)cc1)C2=O (stereo not given)		inconclusive: 29.7%
CCOC(=O)c1sc(NC(=O)c2ccc3ncsc3c2)nc1C	active: 12.6 µM	
N=c1c(C(=O)NCc2ccc3c(c2)OCO3)cc2c(=O)n3ccccc3nc2n1Cc1cccnc1	inconclusive: 10 µM [rising, partial curve]	
Cc1cc(C)c(S(=O)(=O)NCC2CCC(C(=O)NCCCN3CCOCC3)CC2)c(C)c1 (stereo not given)		inconclusive: -16.6%
CCOc1ccc(C2C(C#N)=C(N)SC(N)=C2C#N)cc1OCC	active: 7.94 µM	
CCOC(=O)Cc1csc(NC(=O)c2ccc(S(=O)(=O)N3CCCCC3)cc2)n1		inconclusive: 0.631%

Structure (SMILES)	Potency	activity change, negative = inhibition
CCCn1c(=O)c2ccccc2n2c(SCCOc3ccccc3)nnc12	inconclusive: 15.8 µM [rising, partial curve]	
CC(=O)c1cccc(NC(=O)C2CCCN(S(=O)(=O)c3ccccc3)C2)c1 (stereo not given)		inconclusive: -7.86%
CCOC(=O)C1CCCN(CC(=O)Nc2c(C(=O)OC)[nH]c3ccccc23)C1 (stereo not given)	inconclusive: 15.8 µM [rising, single point]	
CCOc1ccc(OCC)c(NC(=O)C2CCN(c3nn4c(=O)cc(C)nc4s3)CC2)c1	inconclusive: 10 µM [rising, partial curve]	
Cc1cccc(NC(=O)C2c3ccccc3C(=O)N3CCc4ccccc4C23)n1 (stereo not given)		inconclusive: -3.24%
Cc1ccc(S(=O)(=O)CCC(=O)c2ccc(O)cc2O)cc1		inconclusive: -17.7%
O=C(Nc1sc2c(c1C(=O)NC1CCCCC1)CCC2)c1ccco1	inconclusive: 1.58 µM [rising, partial curve]	
O=C(Nc1ccccc1)N1CC=C(c2ccc(F)cc2)CC1		inactive
CN1CCN(C(=O)c2sc(=S)n(-c3ccccc3)c2N)CC1	inconclusive: 10 µM [rising, partial curve]	
COc1ccc(C(C)=O)c(Oc2nc(CN3CCOCC3)nc3scc(-c4cccs4)c23)c1		inconclusive: -21.3%
CCC1(c2ccccc2)C(=O)NCNC1=O		inconclusive: -8.6%
Cn1nc(-c2ccc(Cl)cc2)c2cc(C(=O)N3CCN(C(=O)c4ccco4)CC3)sc21	inconclusive: 3.16 µM [rising, single point]	
Cn1c(=O)c(CCc2ccccc2)nc2cnc(Nc3ccccc3)nc21		inconclusive: 13.4%
CCOc1ccc(N2C(=O)NC(Cc3c[nH]c4ccccc34)C2=O)cc1 (stereo not given)		inactive
CN(C)c1ccc(NC(=O)Cn2c(=O)n(Cc3ccccc3)c(=O)c3ccccc32)cc1	inconclusive: 1.26 µM [falling, partial curve, poor fit]	
O=c1cc(-c2c(F)c(F)c(F)c(F)c2F)oc2c(F)c(F)c(F)c(F)c12		inconclusive: 1.03%
O=C(O)CCc1ccc(-c2cccs2)n1CC1CCCO1 (stereo not given)		inactive
O=S(=O)(c1ccc(Br)c2nsnc12)N1CCOCC1		inconclusive: 1.74%
Cn1c(=O)cc(OCCCC(=O)Nc2ccccn2)c2ccccc21	inconclusive: 10 µM [rising, single point]	
Cn1c(CNc2ccccc2O)nc2ccccc21		inactive
Cc1ccc(N(C(=O)c2ccc(S(=O)(=O)N3CCOCC3)cc2)C2C=CS(=O)(=O)C2)cc1 (stereo not given)		inconclusive: -6.19%
Cc1[nH]nc2c1C(C(C)C)C(C#N)=C(N)O2 (stereo not given)		inactive
CCN1CCCC1CNC(=O)c1ccc2c(=O)n(CCOC)c(=O)[nH]c2c1 (stereo not given)		inactive
O=C(COC(=O)c1ccccc1NC(=O)c1ccco1)NCCC1=CCCCC1	inconclusive: 25.1 µM [rising, single point]	
C=CCn1c(=O)[nH]c2cc(C(=O)N3CCN(c4cccc(Cl)c4)CC3)ccc2c1=O		inconclusive: 23.1%
COc1ccc(C2C3=C(CCCC3=O)Nc3nc(C(F)(F)F)nn32)cc1OC (stereo not given)		inconclusive: 16.6%
O=C(NCCO)c1cccc(S(=O)(=O)N2CCCCC2)c1		inactive

Structure (SMILES)	Potency	activity change, negative = inhibition
COc1cc(OC)cc(-c2cc3nc(C)c(CCC(=O)O)c(C)n3n2)c1	inconclusive: 10 µM [rising, partial curve]	
CCOC(=O)c1cc(-c2ccccc2)sc1N		inactive
O=c1c2c(nc3n1CCCCC3)sc1c(O)cccc12		inconclusive: 21.3%
O=C(CN1CCN(C2CCCCC2)CC1)c1ccc2cc[nH]c2c1		inactive
COc1ccccc1C1C=C(c2ccc(C)cc2)Nc2nnnn21 (stereo not given)	inconclusive: 25.1 µM [falling, single point]	
COc1ccc(Cl)cc1NC(=O)c1cccnc1		inactive
O=C(Nc1cccc2c1C(=O)NC2=O)c1ccc(S(=O)(=O)N2CCCC2)cc1	inconclusive: 3.16 µM [falling, full curve]	
CCCCCCSC1=C(C#N)C(c2ccc(O)cc2)CC(=O)N1 (stereo not given)		inactive
CCC(=O)Nc1sc2c(c1C(N)=O)CCC2		inactive
CCn1c(CSc2nccn2C)nc2cc(C(=O)O)ccc21	inconclusive: 7.94 µM [rising, single point]	
COc1ccc2oc(-c3ccccc3)c(C(=O)N3CCOCC3)c2c1		inactive
CCOC(=O)c1cnc(Nc2nc3ccccc3o2)nc1CSc1nnc(C)s1		inconclusive: 9.59%
COC(=O)[C@@]1(Cc2ccc(OC)cc2)[C@H]2c3cc(C(=O)N(C)C)n(Cc4nc5ccccc5[nH]4)c3C[C@H]2CN1C(=O)c1ccccc1		inconclusive: 12.5%
Cc1nc2cnc(N(C)C)nc2n(Cc2ccc(F)cc2)c1=O	inconclusive: 1.26 µM [rising, full curve, poor fit]	
O=C(COc1ccccc1)Nn1cnc2ccccc21	inconclusive: 0.0631 µM [falling, single point]	
COC(=O)c1ccccc1NC(=O)CN(C1CCCCC1)S(C)(=O)=O	active: 3.16 µM	
CCOc1ccc(C(N)=O)cc1OC		inconclusive: 24.2%
Cc1ccc(NC(=O)CSc2nnc(-c3ccccc3C)o2)cc1C		inconclusive: -13.6%
CCOC(=O)c1c(C)oc2cc(Br)c(O)c(Br)c12	inconclusive: 12.6 µM [rising, single point]	
N#CCCn1c(=O)c(-c2cc(F)cc(F)c2)nc2cnc(Nc3ccccc3)nc21		inconclusive: -1.3%
O=C(NC12CC3CC(CC(C3)C1)C2)c1cc2nc(-c3ccco3)cc(C(F)(F)F)n2n1		inconclusive: 25.8%
Nc1nc(C(=O)O)c(N=Nc2ccccc2)c(=O)[nH]1		inactive: 2.16% [at 7.6 µM]
COC(=O)C1=C(C)N(c2ccc(F)cc2)C(=O)C1		inconclusive: -25.4%
O=C(Nc1nc2c(s1)CCc1ccccc1-2)c1cccs1	inconclusive: 20 µM [rising, single point]	
COc1ccc(N(CC(=O)Nc2ccc3c(c2)OCCO3)S(=O)(=O)c2c(C)noc2C)cc1		inconclusive: 9.37%
O=S(=O)(NCc1ccncc1)c1ccc(S(=O)(=O)NCC2CCCO2)cc1 (stereo not given)		inconclusive: 12.8%
